In all, about 4,800 compounds went through this assay and about 410 (8.5%) showed an effect of 50% or more. Some of the results follow.
System: Plasmodium falciparum
Experiment: Confirmatory screen in NF54 pLDH assay, in single point, at 2uM, 72h
Assay type: functional, Erythrocyte
Conditions: timepoint 72 hour

| SMILES | % Inhibition [%] |
| --- | --- |
| Cc1nn(C)c(Cl)c1NC(=O)OCc1ccc(F)cc1 | 13 |
| O=C(NCc1ccncc1)c1cc(C(=O)C2CCCCC2)c[nH]1 | -10 |
| CC(=O)N(Cc1ccccc1OCc1c(Cl)cccc1Cl)c1ccc2oc(-c3ccccc3)nc2c1 | -6 |
| COC(=O)c1[nH]c(C)cc1NC(=O)C1=CCCCCC1 | 9 |
| COc1ccc(CC2C(O)C(Cc3ccc(OC)cc3)C3CCC2N3C)cc1 (centres undefined) | 6 |
| Oc1cccc(CN2CCC3(CC2)C[C@H](c2ccccc2)CN(C2CC2)C3)c1 | 29 |
| CC(=O)NCC(=O)N1CCC(OC(C)(C)C)CC1 | 11 |
| O=C(c1cnc2ccccc2n1)N1CCCC1 | -1 |
| Cc1cc(F)ccc1N1CCC[C@H](NC(=O)c2csnc2C)C1=O | 5 |
| O=C(O)C1c2ccccc2C(=O)N(C2CCCCC2)C1c1ccc(Cl)cc1 (centres undefined) | -3 |
| O=C(Nc1nc2cccc(Cl)c2o1)c1cccc(F)c1 | 92 |
| COC(=O)C1(CNC(=O)C2CCC2)CCCCC1 | 10 |
| CCN1CCN(c2nc3ncn(CC(=O)NC(C)C)c(=O)c3s2)CC1 | -10 |
| Cc1noc(Cn2c(=O)c3ccccc3n(CC(=O)Nc3cccc(Cl)c3C)c2=O)n1 | 2 |
| COc1ccc(CCNC(=O)Cn2c(=O)ncc3cc(S(=O)(=O)N4CCCC[C@@H]4C)ccc32)cc1OC | 9 |
| Cc1nc2ccccc2n1CC1CCCN1C(=O)C1CCc2cccnc21 (centres undefined) | 4 |
| COc1ccc(-c2nc(N)s[n+]2-c2ccccc2)cc1 | 9 |
| COc1ccnc(N2CCc3nn(C(C)C)c(=O)cc3C2)n1 | 3 |
| CC1(C)CCc2nnc(COc3ccc(C#N)cc3)n2C1 | 8 |
| Cn1cc(C(=O)NCCOc2ccc3ccccc3n2)cn1 | -10 |
| O=C(Cn1c(=O)n(Cc2ccco2)c(=O)c2ccccc21)NC1CCCCC1 | 10 |
| COc1ccc(-c2c(C(F)(F)F)n[nH]c2-c2ccc(OCc3ccccc3F)cc2O)cc1 | 91 |
| O=C1C[C@H](c2nc3cc(Cl)ccc3o2)CN1c1ccc(F)cc1 | -13 |
| O=C(CNC(=O)c1ccc(Cl)cc1)Nc1ccc2[nH]c(=O)[nH]c2c1 | 2 |
| O=C(N[C@H]1C[C@@H]2C[C@H]1CN2C(=O)c1ccc(C(F)(F)F)s1)c1cccnc1 | 14 |
| O=C(c1ccc(COc2ccc3ccccc3c2)o1)N1CCN(c2ccccn2)CC1 | 9 |

| SMILES | % Inhibition [%] |
| --- | --- |
| COc1cccc(-c2cc3c(N4CCN(c5ccccn5)CC4)nccn3n2)c1 | 4 |
| CCC(=O)Nc1cc(Br)c(N)c(Br)c1 | -22 |
| O=C(NC1CCCC1)N1CCC2(CC1)C[C@@H](OCc1ccccc1)CCO2 | 10 |
| Cc1cccc(C)c1NC(=O)C1CCN(S(=O)(=O)c2c(C)nn(-c3ccccc3)c2C)CC1 | -3 |
| CC1OC2(OC1C)C(=O)N(C1CCOC1=O)c1ccccc12 (centres undefined) | -15 |
| COc1ccccc1[C@H]1CC(O)=Nc2c1ncn2-c1cc(F)cc(F)c1 | -10 |
| CCS(=O)(=O)CCNC(=O)c1cccc(F)c1F | 3 |
| Cc1ccc2sc(C(=O)N3CC(OCC(=O)N(C)C)C3)cc2c1 | 3 |
| Cn1c(-c2ccccc2)c[n+](CC(=O)c2ccc3c(c2)OCO3)c1N | 12 |
| CC1C=CC2C(=O)N(CC(F)(F)F)C(=O)C2C1C(=O)N1CCC(Cc2ccccc2)CC1 (centres undefined) | 0 |
| C[C@H](C#N)CN(C)c1nc(C2CC2)nc2scc(-c3ccccc3)c12 | -3 |
| CC(C)NC(=O)C(=O)Nc1nccs1 | -19 |
| CC(=O)Nc1cc(NC(=O)c2cccc[n+]2[O-])c(F)cc1F | -20 |
| COCCCNC(=O)c1cncc(Br)c1 | -2 |
| Cn1ccc(NC(=O)C(=O)N2CC[C@H](c3ccco3)C2)n1 | 5 |
| Cc1cccc(CN(Cc2cccc(C)n2)C[C@H]2CCCCO2)n1 | 90 |
| CCc1nc(NS(=O)(=O)c2cc(Cl)sc2Cl)no1 | 5 |
| Cc1ccc(C2=C[C@@H](c3ccc(Cl)cc3)n3nc(NC(=O)c4ccccc4)nc3N2)cc1 | 90 |
| Cc1cc(S(=O)(=O)NC(=O)CCC(C)C)c(C)o1 | -22 |
| CCc1n[nH]c(C(=O)N2CC3CCCN3CC2CC)c1Br (centres undefined) | 11 |
| COc1ccc(F)cc1S(=O)(=O)N1CCc2noc(N)c2C1 | 63 |
| CCN(CCNC(=O)C1CC1c1cccc(Cl)c1Cl)CC(F)F (centres undefined) | 7 |
| CCCCNC(=O)Nc1cccc(C#CCN)n1 | 3 |
| CCC1=Nc2ccccc2N=C(NC(=O)C(C)C)[C@H]1c1ccc(F)cc1 | 42 |
| Cn1ccc(CNC(=O)c2c(Br)cnn2C)n1 | -10 |
| COC[C@H](NCCc1cc(F)cc2c1OCOC2)C1CC1 | 82 |

| SMILES | % Inhibition [%] |
| --- | --- |
| Cc1cc(C)cc(-n2c(=O)c3sccc3n(CC(=O)NCc3ccccc3Cl)c2=O)c1 | -17 |
| CS(=O)(=O)N1CCC(C(=O)Nc2cnn(Cc3c(F)cc(F)c(F)c3F)c2)CC1 | 7 |
| CCc1ccc(-n2c(=O)[nH]c3nc(N4CCN(c5ccccc5F)CC4)ncc3c2=O)cc1 | -25 |
| CC1(C)CN(C(=O)c2c[nH]c3ccccc23)CC[S@@+]1[O-] | -12 |
| Cc1cccc(N2CCN(CCCNC(=O)CCn3c(=O)c(C)nc4cc(C)c(C)cc43)C[C@@H]2C)c1 | 12 |
| N#Cc1ccc(NCCc2csc(N)n2)nc1 | -4 |
| CN(Cc1ccc(F)c(F)c1)S(=O)(=O)C[C@H]1CCN(C(=O)OCc2ccccc2)C1 | -1 |
| CCN1CCC[C@@H]1CNC(=O)c1[nH]nc2c1CCc1ccccc1-2 | -3 |
| COCCN(CC1CN(Cc2cccs2)CC1c1cccc(F)c1)C(=O)C(C)C (centres undefined) | -10 |
| CC(C)CN1C(=O)CC[C@@H](C(=O)NCCCOC(C)C)[C@@H]1c1cccnc1 | -16 |
| O=C(Nc1ccc(Cl)cc1)c1cccc(N2C(=O)C3CCC(c4ccccc4)CC3C2=O)c1 (centres undefined) | 1 |
| O=C1NS(=O)(=O)c2cc(N3CCN(Cc4ccccc4)CC3)ccc21 | 8 |
| CCc1nnc2ccc(S(=O)(=O)N(CC#N)c3ccccc3)cn12 | -16 |
| COc1ccccc1C1CC(=O)Nc2nc(N3CC(C)CC(C)C3)nc(O)c21 (centres undefined) | -5 |
| Cc1cc(NC(=O)Cn2cc(F)ccc2=O)n(C)n1 | 4 |
| O=C(c1c(F)cccc1F)N1C[C@@H]2CCCN2c2ccc(C(F)(F)F)cc21 | -14 |
| CCn1nccc1C(=O)N1CC[C@H](CC(=O)NCc2ccncc2)C1 | 6 |
| O=C(NCCc1cccs1)c1cnn2c(-c3ccc4c(c3)OCO4)ccnc12 | -8 |
| N#Cc1ccc(N[C@H]2CCCN(Cc3ccc(F)cc3F)C2=O)cn1 | -11 |
| Nc1nccnc1C(=O)NCc1ccc(Cn2ccnc2)cc1 | 3 |
| COc1ccc(NC(=O)Cn2c(=O)n(CCc3cccs3)c(=O)c3ccccc32)cc1Cl | 11 |
| COc1cc(NC(=O)c2cccc3c(Br)cccc23)ccc1NC(=O)c1ccccc1Cl | 6 |
| Cc1cccn(Cc2nnnn2C2CC2)c1=O | 7 |
| Cc1ccc(-c2cc3ncc(S(=O)(=O)c4ccccc4)c(-c4cccs4)n3n2)cc1 | -16 |
| CN1C(=O)[C@H](OC(=O)COc2ccccc2)N(c2cccc(Cl)c2)C1=O | -21 |
| COc1ccc(CCN2C(=O)COCC2=O)cc1OC | 3 |

| SMILES | % Inhibition [%] |
| --- | --- |
| FC(F)(F)c1nnc(NCc2cncs2)s1 | -7 |
| Cc1cc(NC(=O)c2occc2-c2ccccc2)sn1 | 2 |
| FC(F)Oc1ccc(-c2c[n+](-c3cccc(C(F)(F)F)c3)c3n2CCCCC3)cc1 | 42 |
| Cc1ccc([C@@H]2CC(=O)Nc3nc(N4CCN(CCO)CC4)nc(O)c32)cc1 | 3 |
| Cc1cc(C(=O)NC(C)C)nc(N(C)C)n1 | 8 |
| COc1ccc(S(=O)(=O)N2CC[C@@H]3[C@@H](COCCN3Cc3ccccc3)C2)cc1 | 0 |
| O=C(NC(Cn1ccccc1=O)c1ccccc1)C1CCOC1 (centres undefined) | 7 |
| CC[C@@H](CCNS(=O)(=O)c1cn(C(F)F)nc1C)n1ccc(C(F)(F)F)n1 | -9 |
| Cc1nnc(Cn2ncnc2-c2ccccc2Cl)o1 | 3 |
| Cc1noc(C(C)(C)NC(=O)Nc2c[nH]nc2-c2nccs2)n1 | -3 |
| CC1(C)C2CCC13CS(=O)(=O)N=C3C2 (centres undefined) | 17 |
| O=c1[nH]c(=O)n(-c2ncnc3c2cnn3-c2ccccc2)cc1Cl | 9 |
| COc1ccc2[nH]c3c(c2c1)CCN(C(=O)c1ccc(C)c(C)c1)[C@@H]3c1ccccc1OC | 86 |
| Cn1c(-c2ccccc2)cn2cc(-c3ccc(F)cc3)nc12 | -7 |
| CC[C@H]1Cn2c(C(=O)N3CCN(C(=O)c4ccco4)CC3)cc3c(Cl)ccc(c32)O1 | -5 |
| Cc1ccc(S(=O)(=O)Nc2cc3nc4ccccc4nc3n2CCc2ccccc2)cc1 | 97 |
| CS(=O)(=O)C[C@H](NCc1nc2c(s1)CCC2)c1ccccc1 | -7 |
| COc1cc(=O)[nH]cc1Br | -12 |
| Cc1cnc(N[C@@H](CN)C2CCCCC2)nc1 | -12 |
| FC(F)Oc1cccc(-c2cc(C(F)(F)F)c3c(-c4ccc5c(c4)OCO5)noc3n2)c1 | 9 |
| CCO/N=C(\Nc1ccccc1)c1nonc1N | -13 |
| COc1ccc(CC(=O)NCc2nnc3n2CCC3)cc1 | 9 |
| C=CCCCN(C)C(=O)c1cc(S(N)(=O)=O)cc(Cl)c1F | 8 |
| O=C(c1ccnn1C(F)F)N1N=CC[C@]1(O)C(F)(F)F | -3 |
| CCOc1ccc(Nc2c3ccccc3nc3ccccc23)cc1 | 96 |
| CN1CCC[C@H](C(=O)Nc2nc(C3CC3)cs2)C1 | -2 |

From ChEMBL document CHEMBL4888484, “Replenishing the malaria drug discovery pipeline: Screening and hit evaluation of the MMV Hit Generation Library 1 (HGL1) against asexual blood stage Plasmodium falciparum ,using a nano luciferase reporter read-out” (2022)
